Laboratory results: paper PMC4336329 (PLoS ONE, 2015)
Hit rate of the full screen: of about 310,000 compounds, about 2,200 (0.71%) showed an effect of 50% or more. Effects have a minus sign here. This is one part of the list.

molecular target: human ether-à-go-go-related gene (hERG) potassium channel (human, UniProt Q12809); experiment: primary screen, population patch clamp on CHO cells stably expressing hERG
Sequence (Q12809 whole entry, looked up): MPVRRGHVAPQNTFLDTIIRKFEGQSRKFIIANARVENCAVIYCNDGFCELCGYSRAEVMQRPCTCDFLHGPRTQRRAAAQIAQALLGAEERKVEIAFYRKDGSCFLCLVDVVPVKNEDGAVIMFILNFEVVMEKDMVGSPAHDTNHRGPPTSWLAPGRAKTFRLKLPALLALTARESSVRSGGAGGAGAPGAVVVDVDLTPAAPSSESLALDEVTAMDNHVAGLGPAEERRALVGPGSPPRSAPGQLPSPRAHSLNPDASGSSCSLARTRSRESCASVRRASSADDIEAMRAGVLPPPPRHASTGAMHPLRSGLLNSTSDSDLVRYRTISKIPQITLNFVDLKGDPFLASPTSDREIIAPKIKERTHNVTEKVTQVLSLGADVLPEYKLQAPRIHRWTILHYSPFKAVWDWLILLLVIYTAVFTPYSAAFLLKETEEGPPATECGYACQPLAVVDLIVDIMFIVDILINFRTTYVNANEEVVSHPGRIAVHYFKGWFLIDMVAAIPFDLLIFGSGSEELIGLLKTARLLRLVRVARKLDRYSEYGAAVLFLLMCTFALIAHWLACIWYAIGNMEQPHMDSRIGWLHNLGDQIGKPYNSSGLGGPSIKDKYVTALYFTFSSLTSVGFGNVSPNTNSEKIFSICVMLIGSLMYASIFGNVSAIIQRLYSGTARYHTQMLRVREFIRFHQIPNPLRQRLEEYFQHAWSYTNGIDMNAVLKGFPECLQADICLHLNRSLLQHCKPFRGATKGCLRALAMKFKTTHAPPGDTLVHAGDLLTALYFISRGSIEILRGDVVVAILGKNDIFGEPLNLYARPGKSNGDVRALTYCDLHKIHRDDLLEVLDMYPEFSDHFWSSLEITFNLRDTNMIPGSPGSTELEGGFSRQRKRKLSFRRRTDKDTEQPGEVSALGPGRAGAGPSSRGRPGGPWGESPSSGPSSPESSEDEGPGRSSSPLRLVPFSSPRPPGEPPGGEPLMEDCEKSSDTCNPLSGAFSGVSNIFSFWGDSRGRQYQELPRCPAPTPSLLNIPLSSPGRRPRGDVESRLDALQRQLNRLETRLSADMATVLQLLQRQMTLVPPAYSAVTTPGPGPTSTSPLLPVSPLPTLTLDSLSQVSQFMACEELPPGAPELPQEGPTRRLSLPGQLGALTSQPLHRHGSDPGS

SMILES | hERG current change (%, negative = inhibition) at 1uM [%]
Cc1ccc(NS(=O)(=O)c2c(C(=O)N3CCCCCC3)c(C)n(C)c2C)c(C)c1 | 10.7
COc1ccc(C(=O)C[n+]2cccc(C)c2C)cc1[N+](=O)[O-].[Br-] | 2.73
CCN1CCN(c2ncnc3scc(-c4ccc(C)cc4)c23)CC1 | 3.26
CC(C)(C)OC(=O)CC12CCCCC1NC(=O)O2 (centres unmarked) | 11.7
CCOC(=O)C1CCN(C(=O)c2ccc(Br)o2)CC1 | 8.45
Cc1ccc(C(=O)NNC(=O)CCC(=O)Nc2cccc(Cl)c2C)cc1 | 3.03
O=C(OCc1ccc([N+](=O)[O-])cc1)C1CC(=O)N(c2ccccc2)C1 (centres unmarked) | -36
O=C(O)CC1=C(c2ccc(F)cc2)CCC1=O | 15.3
CC1=C(C(=O)OC2CCCCC2)C(c2ccccc2)NC(=O)N1 (centres unmarked) | 10.9
S=C(NCc1ccccn1)Nc1ccccc1Cl | 6.1
Cc1ccc(S(=O)(=O)n2ccc3c(OCCOCCSCC(NC(=O)OC(C)(C)C)C(=O)O)cccc32)cc1 (centres unmarked) | 11.1
Cc1scc(C(=O)Nc2ccon2)c1-c1ccccc1 | 5.54
O=C(NNC(=S)Nc1ccc(Cl)cc1Cl)c1cccnc1 | 9.93
COc1cccc(S(=O)(=O)NCc2ccc(C(=O)NCc3ccccn3)cc2)c1 | 0.029
COc1ccc(C(=O)OCC(=O)c2c[nH]c3ccccc23)cc1OC | 11.7
CCCCCN(C(=O)CCC(=O)OCC(=O)N(C)Cc1ccccc1C)c1c(N)n(CCCC)c(=O)[nH]c1=O | 11.4
O=C(N/N=C/c1cccs1)c1cncc(Br)c1 | 1.1
COc1cccc(NC(=O)CN(C)C(=O)c2cc(-c3ccc(C)o3)nc3ccccc23)c1 | 8.81
COc1ccc(OC)c(N=C2SCCCN2C(=O)c2ccc(N3C(=O)CCC3=O)cc2)c1 | 13.1
CCOC(=O)c1sc(NC(=O)C(C)(C)C)cc1C | 17.5
Cc1cc(=O)oc2ccc(OC(C)C(=O)O)cc12 (centres unmarked) | 11.9
COc1ccc(CN(C)CC(=O)Nc2sc3c(c2C#N)CCC3)c(OC)c1 | 11.1
Cn1c(SCC(=O)Nc2ccccc2F)nc2c(c1=O)SCC2 | 11.4

SMILES | hERG current change (%, negative = inhibition) at 1uM [%]
O=C(CSCC(=O)N1CCOCC1)Nc1ccccc1 | 1.78
O=C(Nc1ccc(C(O)(C(F)(F)F)C(F)(F)F)cc1)c1ccc(Cl)c([N+](=O)[O-])c1 | 13.1
C/C(=C\C(=O)c1ccc(F)cc1)Nc1ccc(N2CCOCC2)cc1 | 7.27
COc1cc(CNCC(O)c2ccccc2)ccc1OCc1ccc(Cl)nc1.Cl (centres unmarked) | -19.2
COc1ccc(C(c2c(C)[nH]n(C(N)=S)c2=O)C(C#N)C#N)cc1 (centres unmarked) | 14.7
O=C(c1cccc(F)c1)N1CCN(c2ccc([N+](=O)[O-])c3cccnc23)CC1 | -31.6
O=C(COC(=O)c1ccc(OC(F)F)cc1)NC(=O)NC1CCCC1 | 7.77
Cc1cc2cc(CNC(=O)C(C)Oc3ccccc3)ccc2n1C (centres unmarked) | 3.43
CN1CCN(CCC(=O)OC2CC3CCC(C2)N3C)CC1.Cl (centres unmarked) | 4.23
COc1ccc(NS(=O)(=O)CC(C)C)c(OC)c1 | 4.64
O=C(OCCN1CCCC1=O)c1cncc(Br)c1 | 1.6
COc1ccc(S(=O)(=O)N(NC2=NS(=O)(=O)c3ccccc32)C(=O)C(C)C)cc1 | 7.09
Cc1ccc(S(=O)(=O)Nc2cccc(-c3ccc4nncn4n3)c2)cc1 | 16.5
Cc1c(OCC(=O)NC2CC(C)(C)NC(C)(C)C2)ccc2c1oc(=O)c1ccccc12 | -4.3
COc1ccccc1-c1cc(SC)c(C#N)c(=O)o1 | 14.4
Cc1ccc(CNC(=O)C(Cc2ccccc2)NS(=O)(=O)c2ccc(Br)s2)cc1 (centres unmarked) | 8.51
Cc1ccn2c(C(=O)NN=C3CCN(C)CC3)c(C)nc2c1 | 11.4
O=C(c1cccnc1)N1CCN(Cc2ccc3c(c2)OCO3)CC1 | 1.99
COc1ccc(C(=O)/C=C/Nc2ccc(S(=O)(=O)Nc3nc(C)cc(C)n3)cc2)cc1OC | 8.31
O=C(NCCC1=CCCCC1)c1ccc(CN2CCOCC2)cc1 | 8.26
COc1cc2[nH]c(=S)nc(NCc3ccc(Cl)cc3)c2cc1OC | 11.4
CC(C)c1ccc2oc(=O)cc(CN3CCOCC3)c2c1 | 23.4
Cc1ccccc1CS(=O)(=O)CC(O)CN1CCCC1=O (centres unmarked) | 7.74

SMILES | hERG current change (%, negative = inhibition) at 1uM [%]
Cc1ccc(S(=O)(=O)N(C)C)cc1NC(=O)COC(=O)CNC(=O)c1cccs1 | 7.33
CCOc1ccccc1NC(=O)CSc1nnc(CNC(=O)COc2ccc(Cl)cc2)o1 | -0.0939
CC(C)OCCCNC(=O)CN1C(=O)COc2ccc(S(=O)(=O)N3CCCCCC3)cc21 | 8.64
C/C(=N/NC(=O)c1ccc2c(c1)OCO2)c1cccc([N+](=O)[O-])c1 | 1.98
COc1ccc(S(=O)(=O)N(C)c2ccc(C(N)=O)cc2)cc1 | -3.05
COC(=O)c1cccc(N2C(=O)c3ccccc3S2(=O)=O)c1 | 9.01
CN1CCc2c1nc1ccccc1c2N.O=C(O)c1cc([N+](=O)[O-])ccc1Cl | 7.96
CC1C(=O)OC(c2ccc(Br)cc2)C(C)(C)C1=O (centres unmarked) | 13.3
CCCn1nnc(NC(=S)NC(=O)c2ccc(-c3ccc(Br)cc3)o2)n1 | 9.11
COc1ccc(C(=O)NCCC2=CCCCC2)cc1[N+](=O)[O-] | 7.6
O=C(c1cc(-c2ccncc2)nc2ccccc12)N1CCN(c2ccccn2)CC1 | -64
NC(=O)c1ccccc1NC(=O)/C=C/c1ccc(Cl)cc1 | -5.42
O=C(CN1CCN(c2ccccc2)CC1)Nc1ccccc1C(F)(F)F | 7.22
COc1ccc(C(=O)Nc2ccccc2C)cc1S(=O)(=O)N1CCOCC1 | 9.59
CCCCCCNC(=O)CCc1nc2cccnc2n1Cc1ccc(OC)cc1 | -1.38
O=C(Nc1c2c(nn1-c1ccccc1)CS(=O)(=O)C2)c1cc2ccccc2o1 | -1.86
O=C(O)C1C2C=CC3(O2)C1C(=O)N1c2ccccc2COC13 (centres unmarked) | 14.4
Cc1ccc(C(=O)NCCc2nnc3ccc(SCC(=O)Nc4cc(C)on4)nn23)cc1 | 8.91
COc1cc(C(=O)NCC(c2ccco2)N2CCc3ccccc32)cc(OC)c1OC (centres unmarked) | 5
CN(C)c1ccc(NC(=O)C(=O)NCCOc2ccccc2)cc1 | 11.8
O=C1CSC(=Nc2cc(Cl)ccc2Cl)N1 | 2.55
CCOc1ccc(-n2c(SCC(N)=O)nc3sc4c(c3c2=O)CCN(C)C4)cc1 | 14
CC(=O)c1cccc(NC(=O)COC(=O)c2ccc3c(c2)OCO3)c1 | 12.8

SMILES | hERG current change (%, negative = inhibition) at 1uM [%]
COC(=O)c1cncc(C)c1 | 7.18
COc1ccc(NC(=O)Cn2nc(Cc3cccnc3)c3ccccc3c2=O)cc1OC | 3.13
NC(=O)c1ccccc1OCc1nnc(-c2ccccc2Br)o1 | 6.59
Cc1ccccc1C(=O)Nc1ccc(N(C)C)c2ccccc12 | 5.3
O=C(CN1C(=O)C2C3c4ccccc4C(c4ccccc43)C2C1=O)Nc1cccc(C(=O)O)c1 (centres unmarked) | -0.218
O=[N+]([O-])c1cccc(/C=N/Nc2nnc(-c3ccccc3)c(-c3ccccc3)n2)c1 | 9.39
O=C(CSc1nnc(-c2ccccn2)n1-c1ccccc1)Nc1ccc2c(c1)OCO2 | 10.2
CC1CCc2c(nc3ncnn3c2N2CCN(c3ccccc3F)CC2)C1 (centres unmarked) | -4.64
CC(C(=O)N1CCc2ccccc2C1)N(c1ccccc1)S(C)(=O)=O (centres unmarked) | 11.6
O=C1CCCC(O)=C1N=Nc1cccc(C(=O)O)c1 | 4.8
Fc1ccc(-n2c(=S)[nH]c3cccnc32)cc1 | 17.8
COc1ccc2c(c1)C1(Nc3ccccc3-c3nc4ccccc4n31)C(=O)N2 (centres unmarked) | 1.05
CC(C)c1ccc(CN(C)CC(O)c2ccccc2)cc1.O=C(O)C(=O)O (centres unmarked) | 2.85
COc1cccc(/C=N/NC(=O)C(=O)N2CCCC2)c1 | -0.775
Cc1cc2c(C)cc(=O)oc2c2c1NCCC2 | -0.317
Cc1c(-c2ccccc2)n[nH]c1C(=O)NN | 8.85
COc1cccc(/C=C/C(=O)OCC(=O)N(C)CC(=O)Nc2ccccc2Cl)c1OC | 3.61
CC/C(=N\NC(=O)CNC(=O)/C=C/c1ccc(OC)cc1)c1ccccc1 | 14.8
CN(Cc1ccon1)C(=O)CC1C(=O)NCCN1Cc1ccc(Cl)c(F)c1 (centres unmarked) | 5.43
O=C(N/N=C/c1ccccc1)c1ccco1 | 9.48
